According to PubChem BioAssay AID463173 (ICCB-Longwood Screening Facility, Harvard Medical School, 2010):
About 1,700 (3.3%) of roughly 52,000 compounds were called active. Cut-off read from the data, not from the text of the source: active = survival mostly below about 52% (no sharp cut-off); inactive = mostly above about 56%. The list shows a part of the results.

test system: Wild type; experiment: growth inhibition of S. aureus wild type versus tarO mutant, primary screen, teichoic acid synthesis inhibitors, RN4220, OD600 (AID 463173); conditions: S. aureus RN4220 wild type/DeltatarO growth, OD600, 18 h, hits give low values, screened at 18.75 µg/mL (by protocol)

SMILES	survival
CCOc1ccc(CCNC(=O)c2ccc3c(c2)c(C)c(C)n3Cc2ccccc2)cc1OCC	inactive: 68%
CC(C)Nc1nc(C#N)nc(NC(C)C)n1	inactive: 130%
O=S(=O)(c1ccc(Cl)cc1)c1nc(-c2ccco2)oc1SCc1ccc(F)cc1	inactive: 73%
COc1ccc(CCN2C(=O)c3[nH]nc(-c4ccccc4O)c3C2c2ccc(OC)cc2)cc1 (stereo not drawn)	inactive: 58%
COc1ccccc1NC(=O)CCCc1nnc2n(C)c(=O)c3sccc3n12	inactive: 97%
CCOC(=O)c1cc(S(=O)(=O)NCc2ccc(C)cc2)[nH]n1	inactive: 134%
Cc1ccc2nc3sc(C(=O)NCCCN(C)c4ccccc4)cc3cc2c1	inactive: 82%
COc1ccc(NC(=O)CN(c2cc(C)cc(C)c2)S(=O)(=O)c2c(C)noc2C)cc1Cl	inactive: 89%
Fc1cccc(-n2ncc3c2ncn2nc(Cc4ccccc4)nc32)c1	inactive: 95%
COc1ccccc1CNC(=O)CCC1N=C2c3ccccc3N=C(SCc3ccc(C)cc3C)N2C1=O (stereo not drawn)	inactive: 76%
COC(CNS(=O)(=O)c1ccc(S(=O)(=O)NC2CC2)cc1)OC	inactive: 107%
COc1ccc(NC(=O)CSc2ccc3nc(-c4ccccc4)cn3n2)cc1OC	inactive: 126%
CC(C)NC(=O)c1nn(-c2ccccc2F)nc1CO	inactive: 90%
O=C(Nc1cccnc1)Nc1c[nH]c2c(Cl)cccc2c1=O	inactive: 98%
Cc1ccccc1Nc1c(-c2ccc(N3CCOCC3)cc2)nc2ccccn12	inactive: 58%
COc1ccc(-c2nc(SCC(=O)Nc3ccc4c(c3)OCCO4)c(-c3ccc(C)cc3)[nH]2)cc1OC	inactive: 74%
CC(C)(C)OC(=O)N1CCC(c2nnc(SCc3cccc(Cl)c3)o2)CC1	active: 0%
Cc1ccc(CNC(=O)CN2C(=O)COc3ccc(S(=O)(=O)Nc4ccccc4)cc32)cc1	active: -6%
O=C(CSc1nnc(-c2ccc(S(=O)(=O)N3CCCC3)cc2)n1CC1CCCO1)NC1CC1 (stereo not drawn)	inactive: 108%
CC(C)(C)OC(=O)N/N=C/c1cccc(O)c1	inactive: 104%

SMILES	survival
Cc1ccc(C)c(NC(=S)N2CCC(c3nc4ccccc4o3)CC2)c1	inactive: 108%
Cc1cc(C)cc(NC(=O)CSc2nc(-c3ccccc3)c3cc(F)ccc3n2)c1	inactive: 86%
Cc1ccc2c(c1)-c1ncc(C(=O)c3ccccc3O)cc1CO2	active: -7%
CCc1ccc(NC(=O)CC2C(=O)N(c3cccc(OC)c3)C(=O)N2C2CCCC2)cc1 (stereo not drawn)	inactive: 120%
Cc1ccc(C(=O)NC2=NC(c3ccc(C)cc3)CC(=O)N2)cc1 (stereo not drawn)	inactive: 129%
Cc1cc(C)cc(NC(=O)c2cc(CN3CCCC3)on2)c1	inactive: 75%
CCn1c(SCCC#N)nnc1-c1ccncc1	inactive: 99%
CC(=O)c1ccc(NC(=O)c2cc3sccc3n2Cc2ccc(F)cc2)cc1	inactive: 83%
CCCCCOC(=O)CSc1ncnc2sc3c(c12)CCC(C)C3 (stereo not drawn)	active: -1%
Cc1ccccc1S(=O)(=O)Cc1ccc(C(=O)NC2CCC(C)CC2)o1 (stereo not drawn)	inactive: 78%
CCOc1ccc(NC(=O)Cn2c(=O)n(-c3ccccc3)c(=O)c3ccc(C(=O)NCc4ccc5c(c4)OCO5)cc32)cc1	inactive: 119%
COc1ccc(CNC(=O)c2cc3sccc3n2CC(=O)c2ccccc2)cc1	inactive: 110%
CCc1nc2cccnc2n1CCNC(=O)NC1CCCCC1	inactive: 108%
CCC(C)NC(=O)CSc1nc2cc3c(cc2c(=O)n1CCCCCC(=O)NCc1ccc2c(c1)OCO2)OCO3 (stereo not drawn)	inactive: 56%
Cc1ccc(CNC(=O)C2CCN(S(=O)(=O)c3ccc4[nH]c(=O)ccc4c3)CC2)cc1	inactive: 95%
Cc1nc2nc[nH]n2c(=O)c1CCC(=O)Nc1ccc(F)cc1	inactive: 91%
Cc1cc(-c2ccc(C)c(S(=O)(=O)NC3CCCCC3)c2)on1	inactive: 68%
CCOc1ccc(-n2ccnc2SCC(=O)Nc2nc3ccc(C)cc3s2)cc1	inactive: 80%
O=C(Cn1c(=O)n(Cc2cccs2)c(=O)c2cccnc21)Nc1ccc(F)cc1	inactive: 88%
COc1cccc2cc(C(=O)Nc3ccc(F)c(F)c3)c(=O)oc12	inactive: 88%

SMILES	survival
COc1ccc(-c2ccc(SCC(=O)N3CCC(C)CC3)nn2)cc1	inactive: 105%
CC1(C)C(=O)N(CC(=O)Nc2cccc(F)c2)c2ccc(S(=O)(=O)N3CCCCC3)cc21	inactive: 55%
Cc1nn(-c2ccccc2)c2c1N(CC(=O)N1CCN(c3ccc(F)cc3)CC1)C(=O)CS2	inactive: 68%
CCOc1cc(-c2nnc(SCC(=O)NC3CCCC3)nc2-c2ccc(OC)c(OCC)c2)ccc1OC	inactive: 66%
CCCCCSc1nnc(-c2ccc(Br)cc2)o1	active: -1%
Cc1ccc(Cl)cc1-n1c(=O)c2sc3ccccc3c2n(Cc2ccccc2)c1=O	inactive: 77%
COc1ccccc1Nc1cccc2nonc12	inactive: 116%
CC(=O)Nc1ccc2sc(C)nc2c1	inactive: 111%
CC(C)CCN1C(=O)c2ccccc2CC1(C)C(=O)NC1CCC(C)CC1 (stereo not drawn)	inactive: 85%
O=C(CSc1nccn1C1CCCC1)Nc1ccc(C(F)(F)F)cc1	inactive: 70%
O=C(Nc1cccc(F)c1)[C@H](CSCc1ccccc1)N1Cc2ccccc2C1=O	inactive: 64%
CCOc1ccc(NC(=O)Cn2cc(S(=O)(=O)NC)c(S(=O)(=O)NC)c2)cc1	inactive: 65%
COc1ccc(NC(=O)C2CCN(S(=O)(=O)c3ccc4[nH]c5c(c4c3)CCCCC5)CC2)cc1	inactive: 126%
CC(C)c1ccc(-c2nc(C(N)=O)c3c(n2)n(-c2ccc4c(c2)OCO4)c(=O)n3C)cc1	inactive: 60%
Cc1ccc(NC(=O)C2CCCN(c3ncnc4onc(-c5ccc(F)cc5)c34)C2)c(Cl)c1 (stereo not drawn)	inactive: 74%
CCCCOc1cccc(C(=O)Nc2cccc(-c3nc4ncccc4o3)c2C)c1	inactive: 72%
CCOC(=O)C1=C(C)NC(=O)NC1c1cn(-c2ccccc2)nc1-c1ccc(OCC)cc1 (stereo not drawn)	inactive: 66%
CCC1SC(=S)N(CC(=O)O)C1=O (stereo not drawn)	inactive: 113%
